This is one part of the list. The list includes weakly bound sequences.

The target of this assay is T1, MBP-FoxP3dN (UniProt Q99JB6).
T1 sequence: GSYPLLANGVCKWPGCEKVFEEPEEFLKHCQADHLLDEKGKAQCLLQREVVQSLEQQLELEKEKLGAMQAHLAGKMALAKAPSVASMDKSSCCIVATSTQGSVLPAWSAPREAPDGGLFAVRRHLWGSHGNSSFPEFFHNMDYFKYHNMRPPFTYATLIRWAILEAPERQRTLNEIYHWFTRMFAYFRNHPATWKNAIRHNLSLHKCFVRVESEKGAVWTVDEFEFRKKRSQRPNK
Put plainly: PD-seq (MBP pull-down with sequencing). Conditions: 20 mM Tris-HCl pH 7.5, 100 mM NaCl, 1.5 mM MgCl2, 0.4 uM protein, 0.1 uM dsDNA library, 30 min, room temperature, amylose pull-down; high values mean tight binding; double strand, one strand shown.
For the sequence “GATGATTGTTCTCCCAGCTGATGAATTATCCTCATCGAGTAAACAAATTTTCCTAATCTTTCTGTTCAAGCGCCATCTAC”, the binding signal (RPM ratio (pull-down/input)) was 0.301.
In the case of “GATGATTGTTCTCCCAGCTGATGAATTAAAACCTTCGAGTAAACAAATTTTCCTAATCTTTCTGTTCAAGCGCCATCTAC”, the binding signal (RPM ratio (pull-down/input)) was determined as 0.237.
In the case of “GATGATTGTTCTCCCAGCTGATGAATTACATCTTTCGAGTAAACAAATTTTCCTAATCTTTCTGTTCAAGCGCCATCTAC”, the binding signal (RPM ratio (pull-down/input)) was found to be 0.529.
“GATGATTGTTCTCCCAGCTGATGAATTCGTGGGGTCGAGTAAACAAATTTTCCTAATCTTTCTGTTCAAGCGCCATCTAC”: the binding signal (RPM ratio (pull-down/input)) was 0.931.
Turning to “GATGATTGTTCTCCCAGCTGATGAATTGGCACGATCGAGTAAACAAATTTTCCTAATCTTTCTGTTCAAGCGCCATCTAC”, the binding signal (RPM ratio (pull-down/input)) stood at 0.317.
With “GATGATTGTTCTCCCAGCTGATGAATTGGCTCAGTCGAGTAAACAAATTTTCCTAATCTTTCTGTTCAAGCGCCATCTAC” the figure was 0.231; with “GATGATTGTTCTCCCAGCTGATGAATTAGGTAATTCGAGTAAACAAATTTTCCTAATCTTTCTGTTCAAGCGCCATCTAC”, 0.922; with “GATGATTGTTCTCCCAGCTGATGAATTTTGGACGTCGAGTAAACAAATTTTCCTAATCTTTCTGTTCAAGCGCCATCTAC”, 0.301.
For “GATGATTGTTCTCCCAGCTGATGAATTGGTTGCTTCGAGTAAACAAATTTTCCTAATCTTTCTGTTCAAGCGCCATCTAC”, the binding signal (RPM ratio (pull-down/input)) is 2.07.
As to “GATGATTGTTCTCCCAGCTGATGAATTGAGGGCCTCGAGTAAACAAATTTTCCTAATCTTTCTGTTCAAGCGCCATCTAC”, the binding signal (RPM ratio (pull-down/input)) turned out to be 0.551.
For the sequence “GATGATTGTTCTCCCAGCTGATGAATTTCGGAAGTCGAGTAAACAAATTTTCCTAATCTTTCTGTTCAAGCGCCATCTAC”, the binding signal (RPM ratio (pull-down/input)) is 0.188.
As to “GATGATTGTTCTCCCAGCTGATGAATTCCTGAAGTCGAGTAAACAAATTTTCCTAATCTTTCTGTTCAAGCGCCATCTAC”, the binding signal (RPM ratio (pull-down/input)) is 0.17.
On to “GATGATTGTTCTCCCAGCTGATGAATTGCCATGGTCGAGTAAACAAATTTTCCTAATCTTTCTGTTCAAGCGCCATCTAC”, for which the binding signal (RPM ratio (pull-down/input)) amounted to 0.786.
With “GATGATTGTTCTCCCAGCTGATGAATTCCCATTCTCGAGTAAACAAATTTTCCTAATCTTTCTGTTCAAGCGCCATCTAC” the figure was 0.381; with “GATGATTGTTCTCCCAGCTGATGAATTCCATCAGTCGAGTAAACAAATTTTCCTAATCTTTCTGTTCAAGCGCCATCTAC”, 0.359.
With “GATGATTGTTCTCCCAGCTGATGAATTTACCAAGTCGAGTAAACAAATTTTCCTAATCTTTCTGTTCAAGCGCCATCTAC” the figure was 0.276; with “GATGATTGTTCTCCCAGCTGATGAATTTCAACGTTCGAGTAAACAAATTTTCCTAATCTTTCTGTTCAAGCGCCATCTAC”, 0.406.
“GATGATTGTTCTCCCAGCTGATGAATTACCACAGTCGAGTAAACAAATTTTCCTAATCTTTCTGTTCAAGCGCCATCTAC”: the binding signal (RPM ratio (pull-down/input)) was determined as 0.302.
As for “GATGATTGTTCTCCCAGCTGATGAATTGCCAGTGTCGAGTAAACAAATTTTCCTAATCTTTCTGTTCAAGCGCCATCTAC”, the figure is 0.694; as for “GATGATTGTTCTCCCAGCTGATGAATTTGTAGCATCGAGTAAACAAATTTTCCTAATCTTTCTGTTCAAGCGCCATCTAC”, 4.88; as for “GATGATTGTTCTCCCAGCTGATGAATTGGGTTCGTCGAGTAAACAAATTTTCCTAATCTTTCTGTTCAAGCGCCATCTAC”, 0.58.
With “GATGATTGTTCTCCCAGCTGATGAATTGCATGAGTCGAGTAAACAAATTTTCCTAATCTTTCTGTTCAAGCGCCATCTAC” the figure was 0.828.
Consider “GATGATTGTTCTCCCAGCTGATGAATTCAAAACTTCGAGTAAACAAATTTTCCTAATCTTTCTGTTCAAGCGCCATCTAC”, for which the binding signal (RPM ratio (pull-down/input)) is 0.315.
In the case of “GATGATTGTTCTCCCAGCTGATGAATTTATGTGCTCGAGTAAACAAATTTTCCTAATCTTTCTGTTCAAGCGCCATCTAC”, the binding signal (RPM ratio (pull-down/input)) was found to be 3.7.
With “GATGATTGTTCTCCCAGCTGATGAATTTGAATTGTCGAGTAAACAAATTTTCCTAATCTTTCTGTTCAAGCGCCATCTAC” the figure was 1.01.
As for “GATGATTGTTCTCCCAGCTGATGAATTAGATCTTTCGAGTAAACAAATTTTCCTAATCTTTCTGTTCAAGCGCCATCTAC”, the figure is 0.293; as for “GATGATTGTTCTCCCAGCTGATGAATTCTCTGGATCGAGTAAACAAATTTTCCTAATCTTTCTGTTCAAGCGCCATCTAC”, 0.161; as for “GATGATTGTTCTCCCAGCTGATGAATTGCTGTTTTCGAGTAAACAAATTTTCCTAATCTTTCTGTTCAAGCGCCATCTAC”, 2.65.
As for “GATGATTGTTCTCCCAGCTGATGAATTCCATAGTTCGAGTAAACAAATTTTCCTAATCTTTCTGTTCAAGCGCCATCTAC”, the figure is 0.473; as for “GATGATTGTTCTCCCAGCTGATGAATTATGTGCGTCGAGTAAACAAATTTTCCTAATCTTTCTGTTCAAGCGCCATCTAC”, 1.53.
Consider “GATGATTGTTCTCCCAGCTGATGAATTTTAGTCGTCGAGTAAACAAATTTTCCTAATCTTTCTGTTCAAGCGCCATCTAC”, for which the binding signal (RPM ratio (pull-down/input)) worked out at 0.454.
In the case of “GATGATTGTTCTCCCAGCTGATGAATTCAAAGAATCGAGTAAACAAATTTTCCTAATCTTTCTGTTCAAGCGCCATCTAC”, the binding signal (RPM ratio (pull-down/input)) is 0.192.
